Results on 22 molecules are retold here after paper PMC12136788.

T1: UNK ZnF1-3 (human, UniProt Q9C0B0 31-174)
T1 sequence: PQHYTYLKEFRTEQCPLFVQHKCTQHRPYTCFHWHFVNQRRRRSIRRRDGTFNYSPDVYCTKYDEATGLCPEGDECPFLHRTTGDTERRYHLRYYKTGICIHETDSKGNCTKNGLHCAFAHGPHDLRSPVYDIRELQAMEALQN

B1: 68318318_68318438_971_3pUTR_ENSMUSG00000048922_ENSMUST00000150006|mouse|control|control (ssRNA)
RNA: GGGAGUUCUACAGUCCGACGAUCCUUCCACAUACAGGAGUCGCUGGAGACCUGGUGGCGGUGGUCUUAGCGGAGGGGCUGCUGCUCCCGCACAUAGGAGUCUCUGGAGACCUGGUGGCAGUGGCUGUGCCUGAGCUCAGUGGUCAACAGAGGAUUGAGCAUCA
B2: 56705951_56706333_2214_CDS_ENSMUSG00000042625_ENSMUST00000075510|mouse|control|control (ssRNA)
RNA: GGGAGUUCUACAGUCCGACGAUCCUGCAUCCGUUCCCGCUGCAAGCGAGCCUUCUCCCGUCGCUCCUGGAAGGCAUCCAGACGCUGCUCCCGCUCUCGCUGCUCCCGCUCCCGUCUUCGCUCUGUCUCCCGGAUUUCACGCUCCAACAGAGGAUUGAGCAUCA
B3: chr8:95500983:95500984:-_ENSG00000164944_ENST00000437199|hu_hu|hu_hu_hu_mus_True|28_38 (ssRNA)
RNA: GGGAGUUCUACAGUCCGACGAUCAGAACACAUCUAUCGAGUAAAGGACCGUACAUGACGGCCUCUACCACUGCCUCCACUAACAAACUUUCCUCUCUGAGCCUCCACUGCCGCUAUUGUACUAGCCCAGGACGGUCCCAGGCCCAACAGAGGAUUGAGCAUCA
B4: chr10:18963012:18963013:+_ENSG00000165997_ENST00000377275|hu_hu|motif|central (ssRNA)
RNA: GGGAGUUCUACAGUCCGACGAUCCCCUUCUCCUGUGAGAGCACAGCAGGAUUGAAUGUGCCAUGGAUGAUCCUUAAUUGAACGGAGGGUGAGGUAUUUCGAGAUUUCAGCUGCUGUCAUACACCCUUUCAUAUCCUGUUUAUUCAACAGAGGAUUGAGCAUCA
B5: chr8:67197462:67197463:-_ENSMUSG00000031604_ENSMUST00000034015|mus_mus|motif|central (ssRNA)
RNA: GGGAGUUCUACAGUCCGACGAUCUCCGAACUGACCAGUGUAUGUAAAAGGCUUAAAAGGCAACGUCAACUUCAGCCUCCGGUGGCAUGAAGUGGUGAGUUGUACAUUAAUACUUCCUCCAGUUCCCGAAACCUUUUGGUGAGGCAACAGAGGAUUGAGCAUCA
B6: chr18:35731649:35731650:+_ENSMUSG00000037236_ENSMUST00000166793|perfect_dup|motif|central (ssRNA)
RNA: GGGAGUUCUACAGUCCGACGAUCCCCUACCGAGAGAUGACUGCUGGAAUGACUUGGACAUUGUAGAACUAUCUCUUGUCGGUUUUAUAGAUCAAAAAAAAAAAAAAAAGUUUUAAAAGAUGGCCAAAAAGAAAGCUCAAGCUACAACAGAGGAUUGAGCAUCA
B7: chr22:19452774:19452775:-_ENSG00000070010_ENST00000399523|hu_hu|hu_hu_hu_mus_False|1_58 (ssRNA)
RNA: GGGAGUUCUACAGUCCGACGAUCCUUCUCAUUGUAGUUGAUAGCAAUCACAUCUCCAGUCGUCAGACAGGCGAAGUUCCUAAGUGCAUUUUCUAAUACCGCUUUAGGGUUGGUAAUAUCCAGGAAGUCUGGGCUCUGAGGUUGCAACAGAGGAUUGAGCAUCA
B8: chr9:79619141:79619142:-_ENSMUSG00000032328_ENSMUST00000034878|mus_hu|motif|central (ssRNA)
RNA: GGGAGUUCUACAGUCCGACGAUCAAAUUAAAUGGUAAUGUCAGCUGUAUUACUACUGUUUCUAUAUUUAUGAUUAAUUACGGGCAGUACAACUCCCAGAAGGAAGGAGAUGGAUCCAACAGCGAUGUAAGCAAUCCCCAAAAACAACAGAGGAUUGAGCAUCA
B9: chr6:86324874:86324875:-_ENSG00000135316_ENST00000355238|perfect_dup|FALSE|FALSE (ssRNA)
RNA: GGGAGUUCUACAGUCCGACGAUCGGAUGGAGCAGCACCCCUUGCUCCUCUACCACCCCUUCCUCUAGCUCCAACUUGAAAAUCUUCAUAACCAUAGUAUGGAUCUUCAUAUCCACCACGAUAGUUAUGGUAAUCAUAACCAUACAACAGAGGAUUGAGCAUCA
B10: chr5:28717518:28717519:+_ENSMUSG00000048271_ENSMUST00000114884|mus_mus|FALSE|FALSE (ssRNA)
RNA: GGGAGUUCUACAGUCCGACGAUCAGCAACAGGUGUAGAGGAGCAUCGGUUACCACUCAUCUCCAAAACAUGUGAAGGUGCUAUGGGGAGUUCACGGAGAUUACUGUUCCUGGGAGCAGUGGGUUGCAUCUGCUGCAUGGGCCGCAACAGAGGAUUGAGCAUCA
B11: chr11:77336104:77336105:-_ENSG00000074201_ENST00000525064|hu_mus|hu_hu_hu_mus_False|1_58 (ssRNA)
RNA: GGGAGUUCUACAGUCCGACGAUCCUCACACAUUGCUGUGAACAUCGCCUCCAAUGCUGACUUAUCACUGGGCACAAAUCUAAAUUCAGAAAUGGGUUCAACAUCAUCAUUGUCUUCCUCAUCUUCAUCAGAGAGAGCAGGUUCCAACAGAGGAUUGAGCAUCA
B12: chr18:56900473:56900474:+_ENSMUSG00000024590_ENSMUST00000025486|mus_hu|motif|central (ssRNA)
RNA: GGGAGUUCUACAGUCCGACGAUCAACAUCAAUUUCUUCGAUGCAAACAUUUCCAGUGGCUGAGGCGGAAUGAGAGAUGCGGACACGGCUACUCGCCUCUGAUUCUUCCACAUCAACCCUCUUCCGCUUUCCUCUAGUUGUACGCAACAGAGGAUUGAGCAUCA
B13: chr10:76735483:76735484:+_ENSG00000156650_ENST00000287239|hu_hu|FALSE|FALSE (ssRNA)
RNA: GGGAGUUCUACAGUCCGACGAUCAGUGCAUGACUGUUUCUGAGAGACCUUUUUCCUUGGACGAUAGUGCUUUGAAAAGUCUAUAAUUUCACCUCGUGAUCUGCGACCAUCAGGUGAUGGUGUAAAAAACUUAGUAAGGCCAUCCAACAGAGGAUUGAGCAUCA
B14: 120768299_120771588_1247_3pUTR_ENSMUSG00000027272_ENSMUST00000028728|mouse|control|control (ssRNA)
RNA: GGGAGUUCUACAGUCCGACGAUCCUGUUUAUAAUACUUCACAAAUUCCAUAGCAAAGAGUUUUUUGUAUUCCAUCUCCAUAAAAAAACUACUAAAGAUCAAUUCAUGAAGGAUCUUACGGGCACCUUUAUAAAGUUUUGCAUCCAACAGAGGAUUGAGCAUCA
B15: chr10:10886374:10886375:+_ENSMUSG00000090112_ENSMUST00000044053|mus_mus|motif|central (ssRNA)
RNA: GGGAGUUCUACAGUCCGACGAUCAUGUGGGAUAUUGACAUAGUUUAGUUCUGAACGAAGAACAUCAUAGGUAAUGAUAACGGUAUCUUGUUCUGCCAAAAAAUGAGGCUGUAAGAAGCCGUGUUUCUUCACUCCUUGAUAUACCAACAGAGGAUUGAGCAUCA
B16: chr8:95500983:95500984:-_ENSG00000164944_ENST00000437199|hu_hu|hu_hu_hu_mus_True|1_1 (ssRNA)
RNA: GGGAGUUCUACAGUCCGACGAUCAGAACACAUCUAUCGAGUAAAGGACCGUACAUGACGGCCUCUACCACUGCCUCCACUAACAAACUUUCCUCUCGAGCCUCCACUGCCGCUAUUUGUACUAGCCCAGGACGGUCCCAAGUCCAACAGAGGAUUGAGCAUCA
B17: chr4:95690885:95690886:+_ENSMUSG00000028572_ENSMUST00000156910|mus_mus|mus_mus_mus_hu_False|1_18 (ssRNA)
RNA: GGGAGUUCUACAGUCCGACGAUCUUUAGAAAAUGUUAAAUACCAUGCUAAAAUAUUUUCAAAGGCUUAUUUUAUUUUACCAGAAGUCACAGGCAAGCAGACACUACAAGAAUAUAUAAAUACAAACCUCAACAAUAAAAUGUACAACAGAGGAUUGAGCAUCA
B18: 18810149_18812865_195_3pUTR_ENSG00000170540_ENST00000304414|human|control|control (ssRNA)
RNA: GGGAGUUCUACAGUCCGACGAUCCUGCAGCCAGCAGGUUGGUGCUGCGAUUAUCUCCCUCCGCCAUCGUCUCGGGGAUGCAGUCUCUACAAGCGCAGGCCACCUCCCCAACGAGUCCUCCAACCGAAACCCGCACACCAACCACAACAGAGGAUUGAGCAUCA
B19: chr1:63494365:63494366:+_ENSMUSG00000025964_ENSMUST00000114107|mus_hu|motif|central (ssRNA)
RNA: GGGAGUUCUACAGUCCGACGAUCUGAAGGCAGUGUGAUUUCUUUCUGCAUUGCAUUGCUGUAACUGAUAUUACUGCUGCGGUUCUGUUGCAAUGUAUUGUCUUCAUCUGCCAGGACUCCCAAAUUUUUUUCUGCAGUUUCAUUCAACAGAGGAUUGAGCAUCA
B20: chr4:39523128:39523129:-_ENSG00000109814_ENST00000316423|hu_mus|FALSE|FALSE (ssRNA)
RNA: GGGAGUUCUACAGUCCGACGAUCGCACGUGGGUCCGCCGACAUAGCCCGCACCAAUGCAACAGAUCUUCUUAAUCUCAACCAUGACUGAACCACUUCCAAAGCAGGGACACAGCGGCCGUGCAGAUCCCGUUCUCUCGGACAGCAACAGAGGAUUGAGCAUCA
B21: chr19:30213842:30213843:-_ENSMUSG00000024827_ENSMUST00000025778|mus_mus|motif|central (ssRNA)
RNA: GGGAGUUCUACAGUCCGACGAUCAAUGUGCUUCAGCCCCUGGGAUCCAUGGUAAAUGGCGAACAUGGCAGCCAUGUUGGCGGAAAGGGCCUGAGCCGUGCAGAUGUUGCUGGUGGCUUUGUCUCUCCGGAUGUGUUGUUCUCUCAACAGAGGAUUGAGCAUCA
B22: chr19:47610742:47610743:-_ENSMUSG00000042694_ENSMUST00000049369|mus_mus|motif|central (ssRNA)
RNA: GGGAGUUCUACAGUCCGACGAUCUGGCACUUGUUGGGACUCCUUCAUCUCCAGGAUAUCCUUGAUGUAGAGUUUUGCAAAGGCGGGAAACACAGGAUCCAGACCCCAAAAGAGGGGCGGGAUCUCCUCUUCCCUUGGACUGGACAACAGAGGAUUGAGCAUCA

Some of the results follow.

In this test the target is T1, UNK ZnF1-3. Put plainly: nsRBNS (natural sequence RNA bind-n-seq); RBNS binding buffer (assumed for nsRBNS): 25 mM Tris pH 7.5, 150 mM KCl, 3 mM MgCl2, 0.01% Triton X-100, 500 ug/ml BSA, 20 U/ml SUPERase-In, 4 C; UNK is unkempt and MSI1 is Musashi-1; names of the RNAs are library labels; protein concentration not given here; high values mean tight binding.
Molecule B1 had a binding signal of 1.07 enrichment R.
On to B2, for which the binding signal is 0.771 enrichment R.
The same measure for B3: 0.924 enrichment R; for B4: 1.17 enrichment R; for B5: 0.98 enrichment R.
B6 had a binding signal of 2.32 enrichment R.
The same measure for B7: 0.913 enrichment R.
B8 registered a binding signal of 2.19 enrichment R.
With B9, the binding signal was 1.17 enrichment R.
For the molecule B10, the binding signal came to 2.02 enrichment R.
The molecule B11 returned a binding signal of 1.11 enrichment R.
For the molecule B12, the binding signal was found to be 0.447 enrichment R.
With B13 the figure was 0.743 enrichment R; with B14, 0.852 enrichment R; with B15, 0.452 enrichment R.
In turn, B16 came in with a binding signal of 1.01 enrichment R.
As for B17, the binding signal amounted to 2.27 enrichment R.
B18 came in with a binding signal of 0.782 enrichment R.
In the case of B19, the binding signal was 0.221 enrichment R.
The molecule B20 registered a binding signal of 1.01 enrichment R.
B21 yielded a binding signal of 0.619 enrichment R.
Consider B22, for which the binding signal was determined as 0.476 enrichment R.
